Among all 290,000 compounds or so, about 2,100 (0.72%) were called active. The shares of active, inactive and inconclusive entries below differ from those in the screen. Calls come from the whole dose curve; as a rule, active = well fitted inhibition curve with a large enough effect; inconclusive = small, poorly fitted or top-dose-only effect, or effect the other way; inactive = flat fitted curve, though single readings scatter. A potency beside an inconclusive call is a rough fit, not a confirmed value.
What follows are compounds tested against Fructose-bisphosphate aldolase (Giardia intestinalis (strain ATCC 50803 / WB clone C6)) (UniProt A8B2U2) (assay: qHTS Assay for Inhibitors of Fructose-1,6-bisphosphate Aldolase from Giardia Lamblia). Conditions: purified Giardia FBPA; series mostly up to 59.6 µM.
UniProt A8B2U2, sequence (A8B2U2 whole entry, looked up): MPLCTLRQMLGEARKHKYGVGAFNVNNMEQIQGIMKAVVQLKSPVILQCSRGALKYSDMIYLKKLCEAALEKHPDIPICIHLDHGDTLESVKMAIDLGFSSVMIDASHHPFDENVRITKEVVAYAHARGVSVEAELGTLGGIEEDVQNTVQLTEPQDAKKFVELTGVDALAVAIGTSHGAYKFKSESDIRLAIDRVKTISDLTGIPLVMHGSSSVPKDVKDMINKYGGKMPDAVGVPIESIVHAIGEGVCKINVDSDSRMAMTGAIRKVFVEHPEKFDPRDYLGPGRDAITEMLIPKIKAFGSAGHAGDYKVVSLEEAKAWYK
Summary of the method: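 40 nM FBPA preincubated 10 min at RT with compound (up to 57.5 uM final), then substrate plus GAPDH/TPI/NAD/arsenate coupling and diaphorase/resazurin added. Fluorescence read after 20 min at RT, 525/598 nm.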
Note: nearly all actives have a fitted effect of over 55% in size.
Potency is the fitted concentration of half-maximal effect; tags give direction and shape of the fitted curve.

Row | SMILES | Potency
1 | CC(=O)Nc1ccc(S(=O)(=O)/N=C2\C(=O)c3ccccc3C([O-])=C2n2cc[n+](-c3ccccn3)c2)cc1 | inconclusive: 0.251 µM [inhibitor, full curve]
2 | O=C(O)Cc1ccc(NC(=S)NCc2ccco2)cc1 | inactive
3 | CC(=O)Nc1ccc(S(=O)(=O)N2CCN(Cc3csc(C)n3)CC2)cc1 | inconclusive: 20 µM [inhibitor, single point]
4 | CCCCNC(=S)N1CCN(Cc2ccc3c(c2)OCO3)CC1 | inconclusive: 5.61 µM [inhibitor, partial curve]
5 | COc1ccc(/C=N/N2CCN(C)CC2)cc1O | inconclusive: 14.1 µM [inhibitor, partial curve]
6 | CCn1c(NC(=O)c2ccc(C)cc2)c2ccccc2nc1=O | inconclusive: 15.8 µM [inhibitor, single point]
7 | c1ccc(CNC23CC4CC(CC(C4)C2)C3)nc1 | inconclusive: 17.7 µM [inhibitor, partial curve]
8 | N#Cc1ccccc1NC(=O)CSc1nnc(-c2ccccc2)n1-c1ccccc1 | inactive
9 | CCOc1ccc(N/C(=C(/C(Cl)=C(Cl)Cl)[N+](=O)[O-])n2cncn2)cc1 | inconclusive: 19.9 µM [inhibitor, partial curve]
10 | O=C(Nc1cc(Cl)cc(Cl)c1)C1CCC(=O)N1Cc1ccccc1Cl (stereo not drawn) | inactive
11 | CN1C(=S)SC(C)(NO)C1(C)C (stereo not drawn) | inconclusive: 19.9 µM [inhibitor, partial curve]
12 | O=C(CSc1ccc2ccccc2c1)Nc1ccncc1 | inactive
13 | O=C1/C(=C/Nc2ccc3c(c2)OCO3)CCc2ccccc21 | active: 14.1 µM
14 | Cc1[nH][nH]c(=O)c1C(c1ccc(-c2ccc(Cl)cc2)o1)c1c(C)[nH][nH]c1=O | inconclusive: 7.06 µM [inhibitor, partial curve]
15 | Cc1nnc(SCCC(=O)Nc2ccccc2Cl)o1 | inactive
16 | C/C(CS(=O)(=O)c1ccc(Cl)cc1)=N/NC(N)=S | active: 15.8 µM
17 | N#CC(C#N)=c1ccc2c(c1)NC1(CCCCC1)N=2 | inconclusive: 15.8 µM [inhibitor, partial curve]
18 | NC1=NN(c2cccc(C(=O)O)c2)C(=O)C1 | inconclusive: 6.29 µM [inhibitor, partial curve]
19 | Cc1ccc(S(=O)(=O)N2CCN=C2SCc2cccnc2)cc1 | inconclusive: 22.3 µM [inhibitor, partial curve]
20 | Cc1cc2ccccn2c1C(=O)c1ccc(NN)c([N+](=O)[O-])c1 | inactive
21 | COC(=O)c1ccccc1NCc1cc(=O)oc2cc(O)c(O)cc12 | inconclusive: 7.94 µM [inhibitor, partial curve]
22 | Clc1ccc(-c2nc3ccc(Cl)cn3c2CN2CCOCC2)cc1 | inconclusive: 9.98 µM [inhibitor, partial curve]
23 | COc1ccc(Br)cc1CN1CCN(C(=O)c2cccc(OC)c2OC)CC1 | inconclusive: 17.7 µM [inhibitor, single point]
24 | Cc1ccc(CN2CCSCC2)cc1 | inconclusive: 25.1 µM [inhibitor, partial curve]

Row | SMILES | Potency
25 | O=C(CCNC(=O)c1ccc([N+](=O)[O-])cc1)NCCc1ccc(Cl)cc1 | inconclusive: 2.24 µM [inhibitor, partial curve]
26 | CC(=O)NN1C(=O)/C(=C\c2ccc(Br)o2)SC1=S | inconclusive: 19.9 µM [inhibitor, single point]
27 | COc1ccc(Sc2nnc(Cc3ccccc3)c3ccccc23)cc1 | inactive
28 | COc1ccc(/C=N/NC2=NS(=O)(=O)c3ccccc32)cc1OC(C)=O | active: 3.55 µM
29 | CC(C)c1ccc(C2CC(=O)N3CN(C)CSC3=C2C#N)cc1 (stereo not drawn) | inconclusive: 3.54 µM [inhibitor, partial curve]
30 | CN(/N=C\c1ccc(O)c(O)c1)c1nc(-c2ccccc2)cc(-c2ccccc2)n1 | inconclusive: 5.61 µM [inhibitor, full curve]
31 | Cn1c(O)c(/C=C2\N=c3ccccc3=C2CCNC(=S)NC2CC2)c(=O)n(C)c1=O | inconclusive: 15.8 µM [inhibitor, partial curve]
32 | CCCCC[C@H](O)/C=C\[C@H]1[C@H](C/C=C\CCCC(=O)O)[C@@H](O)C[C@H]1O (tested in a mixture with another compound) | inactive
33 | CC(=O)c1ccc(N2CCN(S(=O)(=O)c3cccc(S(=O)(=O)N4CCOCC4)c3)CC2)cc1 | inactive
34 | CC(=O)CC(=O)Nc1cccc2c1CCCC2 | inactive
35 | CCOC(=O)c1oc2c(O)c(O)ccc2c(=O)c1-c1nncn1-c1ccccc1 | active: 4.46 µM
36 | CCOC(=O)c1c(C)oc2c1c(C=NCCO)c(O)c1ccccc12 | active: 1.99 µM
37 | NCCNCCN | active: 17.7 µM
38 | CCN(CC)c1ccc(NC(=O)CSc2nc3ccccc3c(=O)n2-c2cc(S(=O)(=O)N(C)C)ccc2C)cc1 | inactive
39 | CN(c1ccccc1)S(=O)(=O)c1ccc(NC(=O)c2ccccc2)cc1 | inactive
40 | O=C(CNCc1ccc(Cl)cc1)Nc1ccc2c(c1)OCCO2 | inconclusive: 17.7 µM [inhibitor, partial curve]
41 | Cc1ccc(-c2ccc(S(=O)(=O)N3CCN(C)CC3)cc2)cc1 | inactive
42 | CCOCCCNC(=S)NCCCNc1nc2ccc(C)cc2cc1C#N | inactive
43 | OCCN1CCOCCN(CCO)CCOCC1 | inactive
44 | COc1ccccc1N1CCN(C(=O)c2cccc(NC3=NC4CS(=O)(=O)CC4S3)c2)CC1 (stereo not drawn) | inconclusive: 39.8 µM [inhibitor, single point]
45 | CN1C(=O)N(C)C2=NNC=NC2(O)C1=O (stereo not drawn) | inconclusive: 7.06 µM [inhibitor, partial curve]
46 | CCOC(=O)N1CCC(N(CCN(C)C)C(=S)Nc2cc(Cl)cc(Cl)c2)CC1 | inconclusive: 22.3 µM [inhibitor, single point]
47 | COC(=O)c1ccccc1NC1=C/C(=N\S(=O)(=O)c2ccc(C(=O)O)cc2)c2ccccc2C1=O | active: 1 µM
48 | O=C1c2ccccc2C(=O)N1CCc1nn[nH]n1 | inconclusive: 15.8 µM [inhibitor, partial curve]

Reference: PubChem BioAssay AID2451 (National Center for Advancing Translational Sciences (NCATS), 2010)
